Experimental data from the supplement of paper PMC4166925.
± gives the standard deviation of the averaged measurements. Whole data set: some 33,000 sequences, median “E-score (dimensionless, -0.5 to 0.5)” near -0.049, cut for the highest 2% near 0.37. Some of the results follow.

System: T1, PmTbr T-box DNA-binding domain (GST fusion)
T1 sequence: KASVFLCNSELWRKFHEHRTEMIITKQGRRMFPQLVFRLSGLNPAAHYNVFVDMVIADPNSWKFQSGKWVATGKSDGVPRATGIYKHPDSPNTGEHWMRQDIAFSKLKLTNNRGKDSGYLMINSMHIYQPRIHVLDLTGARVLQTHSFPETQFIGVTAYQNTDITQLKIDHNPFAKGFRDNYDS
Assay: PBM E-score of 8-mer (E-score (dimensionless, -0.5 to 0.5)); Tbr is Tbrain of the sea star Patiria miniata (Pm) or the sea urchin Strongylocentrotus purpuratus (Sp); higher = stronger binding preference; most listed sequences are background and not binding sites
Settings: the construct has about 5 more residues each side
Experimental: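 Universal protein-binding microarray (Agilent AMADID 016060, 60-bp probes with a 35-bp variable region) incubated with 200 nM GST-fused Patiria miniata Tbr T-box DNA-binding domain (residues 272-466) in PBS pH 7.5. Scored for every ungapped 8-mer (given with its reverse complement) by the Universal PBM Analysis Suite as E-score (modified Wilcoxon-Mann-Whitney enrichment, range -0.5 to 0.5; >0.45 counts as bound) and Z-score of median probe intensity. Two replicate arrays (datasets 1 and 2).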
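Also: 200 nM protein in PBS on universal arrays averaged over duplicate arrays.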

| Sequence | PBM E-score of 8-mer |
| --- | --- |
| ACGACTCA | -0.0401 ± 0.03 |
| CCGCTGTA | -0.093 ± 0.022 |
| CGCCCACG | -0.0848 ± 0.045 |
| GACGCATC | -0.0679 ± 0.071 |
| GTCACTTA | 0.332 ± 0.004 |
| ATGGGCCG | -0.263 ± 0.12 |
| TTAATTAA | -0.0918 ± 0.023 |
| AAGATTAT | -0.134 ± 0.074 |
| GATTATTA | -0.231 ± 0.024 |
| AATTTAGA | -0.0662 ± 0.0039 |
| CCGGGTCC | 0.057 ± 0.013 |
| TAATACAA | -0.134 ± 0.03 |
| GTTGCAGA | -0.0155 ± 0.071 |
| TTCTACAA | -0.175 ± 0.048 |
| TCCCTTAA | -0.205 ± 0.016 |
| TAGGTATA | 0.149 ± 0.0083 |
| GAATGGAC | -0.094 ± 0.052 |
| CCGTATTA | -0.19 ± 0.055 |
| AAATATGC | 0.0237 ± 0.036 |
| AAATCCCA | 0.0132 ± 0.0089 |
| CCAACCGC | 0.00658 ± 0.07 |
| TCCGCCCA | -0.0159 ± 0.029 |

| Sequence | PBM E-score of 8-mer |
| --- | --- |
| GGTGGCTA | -0.0916 ± 0.029 |
| CTTAAATC | -0.187 ± 0.024 |
| TCAAGTAA | -0.0858 ± 0.011 |
| GCGTTCAA | -0.0538 ± 0.058 |
| ATAAGCCG | -0.203 ± 0.05 |
| CTCGTTCA | -0.07 ± 0.028 |
| CCTAAAAA | -0.0118 ± 0.025 |
| TGGCAAAA | 0.159 ± 0.09 |
| CCAGTTAC | -0.123 ± 0.016 |
| ATCCCAGG | -0.24 ± 0.014 |
| ACGAAGTG | 0.291 ± 0.018 |
| ACAATTAT | -0.0222 ± 0.044 |
| ATTTGTGG | 0.094 ± 0.012 |
| ACCAGACT | -0.253 ± 0.038 |
| ATCAACTG | -0.0549 ± 0.035 |
| ACAGCCTA | 0.104 ± 0.047 |
| GCCGTTAA | 0.0119 ± 0.0044 |
| AAGAGGTC | -0.101 ± 0.02 |
| CTTTGCAC | 0.196 ± 0.0043 |
| ACATAGCG | -0.0152 ± 0.1 |
| GCATCCTA | -0.0162 ± 0.044 |
| CAGGAGAC | -0.136 ± 0.017 |

| Sequence | PBM E-score of 8-mer |
| --- | --- |
| CCCCTATC | -0.173 ± 0.019 |
| GAAGAGCC | -0.131 ± 0.032 |
| AGTCCGTA | -0.192 ± 0.003 |
| ATATAGTG | 0.0284 ± 0.13 |
| ACCGCACG | 0.0344 ± 0.016 |
| ACTCGCAC | 0.4 ± 0.0077 |
| AATGTTCC | -0.191 ± 0.0029 |
| CCCGTCGG | 0.0757 ± 0.044 |
| GTTCACTA | -0.161 ± 0.041 |
| CAATTGCG | 0.118 ± 0.018 |
| GCCCCAAC | 0.0939 ± 0.034 |
| AGGTCATC | -0.0529 ± 0.04 |
| AAAGGTTC | -0.0764 ± 0.11 |
| TCAGTGCA | -0.123 ± 0.065 |
| CTTGGTCC | -0.24 ± 0.053 |
| CACAACAG | 0.161 ± 0.033 |
| AGAATACG | -0.106 ± 0.028 |
| AAGGGAAG | -0.246 ± 0.025 |
| CAGCAGGA | -0.188 ± 0.021 |
| AACCGGGA | -0.09424 ± 0.00045 |
| GAACACAC | 0.173 ± 0.061 |
| CAATGGTC | -0.185 ± 0.055 |

| Sequence | PBM E-score of 8-mer |
| --- | --- |
| CAAATCCG | -0.00304 ± 0.052 |
| AAGGTGTA | 0.404 ± 0.026 |
| CACTGCCA | 0.0889 ± 0.012 |
| GCGACTAC | 0.131 ± 0.019 |
| ACAACTCC | 0.116 ± 0.047 |
| ACTGGCTG | -0.106 ± 0.12 |
| AAAGCATT | -0.0173 ± 0.079 |
| CCATGCAA | -0.0385 ± 0.022 |
| GGGGGACC | -0.2333 ± 0.002 |
| CGATCTAA | -0.173 ± 0.097 |
| AACCCAGT | -0.32 ± 0.063 |
| AGAAGTTC | -0.0679 ± 0.018 |
| CTATACGC | -0.242 ± 0.0075 |
| CTGCTTCC | -0.188 ± 0.072 |
| AATGCTCC | -0.0523 ± 0.0048 |
| CAACCTAG | -0.0267 ± 0.023 |
| AGCCTGGG | -0.157 ± 0.086 |
| CAGTCCCA | -0.0093 ± 0.065 |
| GTCGAAAA | -0.0277 ± 0.09 |
| ATAATGGC | -0.07 ± 0.035 |
